# Test results published in article PMC4336329 (PLoS ONE, 2015).
# The campaign covered roughly 310,000 compounds. About 2,200 (0.71%) showed an effect of 50% or more. Effects have a minus sign here. The list shows a part of the results.
# Target: human ether-à-go-go-related gene (hERG) potassium channel (human, UniProt Q12809)
# Assay: primary screen, population patch clamp on CHO cells stably expressing hERG
# human ether-à-go-go-related gene (hERG) potassium channel, sequence (Q12809 whole entry, looked up): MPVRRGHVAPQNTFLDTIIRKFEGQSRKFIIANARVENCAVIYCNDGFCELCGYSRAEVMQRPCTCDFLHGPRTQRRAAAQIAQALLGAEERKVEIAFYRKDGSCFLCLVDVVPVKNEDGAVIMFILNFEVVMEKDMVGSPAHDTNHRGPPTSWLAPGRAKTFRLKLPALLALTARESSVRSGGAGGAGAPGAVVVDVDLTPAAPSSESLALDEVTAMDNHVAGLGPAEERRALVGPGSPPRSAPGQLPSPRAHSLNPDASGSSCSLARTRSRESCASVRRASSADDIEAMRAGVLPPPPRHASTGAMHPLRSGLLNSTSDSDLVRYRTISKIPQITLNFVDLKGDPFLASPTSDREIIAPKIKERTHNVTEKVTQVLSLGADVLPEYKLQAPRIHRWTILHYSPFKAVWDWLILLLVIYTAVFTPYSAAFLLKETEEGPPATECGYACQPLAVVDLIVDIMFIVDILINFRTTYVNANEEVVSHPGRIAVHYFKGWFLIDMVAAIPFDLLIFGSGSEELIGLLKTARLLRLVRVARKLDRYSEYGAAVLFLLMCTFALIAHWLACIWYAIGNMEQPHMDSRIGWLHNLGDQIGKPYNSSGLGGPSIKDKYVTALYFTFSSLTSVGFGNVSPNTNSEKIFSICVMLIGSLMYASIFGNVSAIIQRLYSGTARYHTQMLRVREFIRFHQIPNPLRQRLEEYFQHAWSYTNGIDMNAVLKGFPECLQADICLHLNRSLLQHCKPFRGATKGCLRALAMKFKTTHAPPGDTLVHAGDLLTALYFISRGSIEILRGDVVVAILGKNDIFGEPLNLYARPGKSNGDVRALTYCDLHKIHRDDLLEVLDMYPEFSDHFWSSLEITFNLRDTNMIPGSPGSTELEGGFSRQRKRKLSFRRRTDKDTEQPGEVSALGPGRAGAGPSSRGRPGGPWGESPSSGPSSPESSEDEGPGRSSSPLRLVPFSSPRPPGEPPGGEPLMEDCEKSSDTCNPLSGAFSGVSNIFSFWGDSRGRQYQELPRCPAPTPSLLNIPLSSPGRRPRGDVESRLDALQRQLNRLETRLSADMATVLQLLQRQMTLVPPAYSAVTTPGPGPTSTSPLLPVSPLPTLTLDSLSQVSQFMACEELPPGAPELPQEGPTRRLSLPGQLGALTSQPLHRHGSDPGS
row,Structure (SMILES),"hERG current change (%, negative = inhibition) at 1uM [%]"
1,CC1CCCCN1CC(O)COCCC12CC3CC(CC(C3)C1)C2.Cl (centres unmarked),-24.9
2,C=CCC1C=C(Cc2ccccc2)CC(CC=C)N1.Cl (centres unmarked),-5.71
3,CCn1c(C)nc2cc(C(=O)N=Nc3c(O)[nH]c4ccccc34)ccc21,0.2
4,Cc1ccc(S(=O)(=O)N2CCOCC2)cc1NC(=O)CSc1n[nH]c(N)n1,-1.25
5,Cc1cc(SCC(=O)c2ccccc2)n2nc(C)nc2n1,10.4
6,Cc1ccccc1C(=O)NC(Oc1ccccc1)C(Cl)(Cl)Cl (centres unmarked),-5.34
7,COc1ccc(NCC(=O)N/N=C/C2CCCCC2)cc1,7.51
8,C=CCn1c(Sc2ncc([N+](=O)[O-])s2)n[nH]c1=O,15.4
9,Cc1ccccc1NC(=S)N(CCCN1CCOCC1)Cc1cccs1,-21.5
10,CCN(CC)C(=O)C1CCCN(C/C(C)=C/c2ccccc2)C1 (centres unmarked),-1.52
11,O=C(CCS(=O)(=O)c1ccc(Cl)cc1)N1CCCc2ccccc21,10.4
12,Clc1ccc(-c2ccc(/C=N/Nc3cc(N4CCOCC4)nc(N4CCOCC4)n3)o2)cc1,8.08
13,C=C(C)c1cccc(C(C)(C)NC(=O)N2CCCC(C(N)=O)C2)c1 (centres unmarked),0.506
14,COc1ccc(C2OC(=O)Cc3cc(OC)c(OC)cc32)cc1 (centres unmarked),18.2
15,CCOC(=O)c1nnn(CC(=O)NC(=O)Nc2ccc(F)cc2)c1C(=O)OCC,0.0893
16,Cc1cc(NS(=O)(=O)c2c(C)[nH]c(=O)[nH]c2=O)ccc1Br,13.1
17,CCN(CC)CCCOc1ccc(Cl)c(Cl)c1,-7.89
18,O=C(CSC(=S)N1CCCC1)N(Cc1nnc(-c2ccccc2Cl)o1)C1CC1,2.76
19,CCOc1ccccc1NC(=O)CC(O)(C(F)(F)F)C(F)(F)F,3.29
20,Cc1nn(C)c(C)c1S(=O)(=O)N(CC(=O)NCc1ccco1)c1ccc(C(C)C)cc1,17.1
21,O=c1cc[nH]c2c(Cl)cccc12,10.1
22,CCc1cccc(NC(=O)CN(C)S(=O)(=O)c2cccs2)c1,12.1
23,CC(C)c1ccc(N2C(=O)CC(NNC(=O)c3ccccc3Cl)C2=O)cc1 (centres unmarked),12.5

row,Structure (SMILES),"hERG current change (%, negative = inhibition) at 1uM [%]"
1,Cc1c(C(=O)N2CCCCC2C)sc2nc3n(c(=O)c12)CCC3 (centres unmarked),14.3
2,COCCCn1c(=O)c2ccccc2n2c(=S)[nH]nc12,16.2
3,COc1ccccc1C(=O)N/C(=C\c1ccccc1)C(=O)NC(C)C(=O)O (centres unmarked),15.6
4,O=C(c1ccc2nc(N3CCOCC3)sc2c1)N1CCN(C(=O)c2ccco2)CC1,-5.7
5,COc1ccccc1Nc1nnc(SCC(=O)NC(=O)Nc2ccc3c(c2)OCCO3)s1,8.57
6,Cc1ccc(CC(=O)N2CCN(C(=O)C3CCCO3)CC2)cc1 (centres unmarked),-3.38
7,O=S(=O)(c1ccc(Cl)s1)N1CCN(Cc2ccccc2)CC1,0.185
8,Cc1ccc(O)c(NC(=O)CCC2CCCCC2)c1,8.17
9,COc1cccc(-c2nnc(SCC(=O)N3CC(C)CC(C)C3)o2)c1 (centres unmarked),-2.54
10,Cc1ccc(C)c(NC(=O)/C(C#N)=C/c2ccc[nH]2)c1,15.7
11,COC(=O)Cc1c(O)ccn(CCc2c[nH]c3ccccc23)c1=O,9.51
12,O=C(CC(NS(=O)(=O)c1ccc(Cl)cc1)c1ccco1)N1CCc2ccccc21 (centres unmarked),0.481
13,CN(Cc1cccnc1)C(=O)CC1C(=O)NCCN1CC(c1ccccc1)c1ccccc1 (centres unmarked),3.94
14,Cc1ccc(-n2c(=S)[nH]c3c(oc4ccccc43)c2=O)cc1C,7.36
15,CCOC(=O)c1cnc(SC)nc1Oc1cccc(NS(=O)(=O)c2ccccc2)c1,11.5
16,O=C(NCCS(=O)(=O)NCc1ccc(F)cc1)c1ccccc1,4.82
17,Cc1cccc(CSc2nnc(-c3ccco3)o2)c1,8.25
18,COc1ccc(CCNC(=O)C2CCN(C(=O)c3ccc(Cl)cc3)CC2)cc1OC,14.2
19,Cc1c(C)c2ccc(OC(C)C(=O)NCCCN3CCOCC3)c(C)c2oc1=O (centres unmarked),12.6
20,O=C(NCC1CCCO1)C1CCCN1C(=O)Nc1ccccc1[N+](=O)[O-] (centres unmarked),5.55
21,O=C(CCCc1ccccc1)Nc1ccccc1C(F)(F)F,9.86
22,C#CCn1c(=NC(=O)c2ccccc2[N+](=O)[O-])sc2cc(S(C)(=O)=O)ccc21,13.3
23,COc1ccc(N(CC(=O)NN=C2CCCC2)S(=O)(=O)c2ccccc2)cc1,10.3

row,Structure (SMILES),"hERG current change (%, negative = inhibition) at 1uM [%]"
1,Cn1c(=O)n(CC(=O)NCC2CCCO2)c(=O)c2c3c(sc21)CCCC3 (centres unmarked),17.4
2,COc1ccc(C2=CC(=O)CCC2)cc1,7.73
3,COc1ccc(OC(C)c2nnc(N)s2)cc1 (centres unmarked),-2.34
4,N#Cc1cccc(-c2cn(S(=O)(=O)c3ccc(Cl)cc3)nc2N)c1,1.12
5,CC(C)CCN1CCN(Cc2cccc3cccnc23)CC1CCO (centres unmarked),6.68
6,C=C(CC1([C@@H](NP(=O)(c2ccccc2)c2ccccc2)[C@H]2C[C@@H]2CCCC)CC1)c1ccccc1,6.61
7,COC(=O)c1ccc(C)c(NC(=O)CCSc2ccccc2)c1,1.86
8,O=C(O)C1CCC(N2C(=O)C3C4CCC(C4)C3C2=O)CC1 (centres unmarked),8.38
9,C[C@H](CCC(=O)[O-])[C@H]1CC[C@H]2[C@@H]3[C@H](O)C[C@@H]4C[C@H](O)CC[C@]4(C)[C@H]3C[C@H](O)[C@]12C.[Na+],8.59
10,CCc1cc(=O)oc2cc(OCC(=O)N3CC[C@@]4(O)CCCC[C@H]4C3)ccc12,9.26
11,O=C(COc1ccc(F)cc1)Nc1nnc(C2CC2)s1,4.55
12,C1CCc2c(nc3nnnn3c2N2CCOCC2)C1,4.18
13,CCc1cccc(NC(=O)CCC(=O)N2CCSc3ccccc32)c1,-3.94
14,O=C(NCCCn1ccnc1)C(=O)NCC1OCCN1S(=O)(=O)c1ccc(F)cc1 (centres unmarked),11.4
15,Cc1cc(Oc2cnn(C(C)(C)C)c(=O)c2Cl)cc(C(C)C)c1,10.7
16,COc1ccc(CCN2CC(C(=O)NCCc3cn[nH]c3)CCC2=O)cc1 (centres unmarked),2.08
17,Cc1cccc(OCC(=O)N/N=C/C=C/c2ccco2)c1,12.6
18,CC(C)(C)N(Cc1nc(-c2ccccc2)no1)C(=O)c1ccc2c(c1)OCO2,10.5
19,Cc1ccc(N2CCOCC2)c2c1C(=O)c1ccccc1C2=O,3.77
20,CC(=O)Nc1ccc(N=Cc2c(O)c(C(=O)Nc3ccccc3)cc3ccccc23)cc1,11.9
21,CC(C)CN(C(=O)c1cccc(F)c1)c1c(N)n(CC(C)C)c(=O)[nH]c1=O,18.5
22,C=CCn1c(C)cc(C(=O)CSc2nc3ccccc3[nH]2)c1C,-2.87
23,O=C(CCNS(=O)(=O)c1cccc2nsnc12)NC1CCN(Cc2ccccc2)CC1,4.44

row,Structure (SMILES),"hERG current change (%, negative = inhibition) at 1uM [%]"
1,COc1cccc(C(=O)/C=C/Nc2cccc(O)c2)c1,10.9
2,Fc1ccc(C2c3[nH]c4ccccc4c3CCN2Cc2cccn2-c2ncccn2)cc1 (centres unmarked),1.09
3,C=CCn1c(=O)c2c3c(sc2n2c(Nc4ccc(OC)cc4)nnc12)CCCC3,14.7
4,CCCCn1nnnc1SCC(=O)Nc1ccc(F)cc1,8.13
5,CC(=O)c1c(C)[nH]c(C(=O)Nc2ccccn2)c1C,11.1
6,Cc1ccc2sc(NC(=O)CSc3nc(C)cc(C)c3C#N)nc2c1,0.196
7,COc1ccc(NS(=O)(=O)c2csc(C(=O)N3CCCC3)c2)c(OC)c1,4.64
8,O=C(/C=C/Nc1ccccc1)c1cnc(-c2ccccc2)s1,10.1
9,Cc1cc(C)cc(N2C(=O)CC(n3nc(C)cc3C)C2=O)c1 (centres unmarked),8.37
10,Cc1ccc(NC(=O)c2ccc(-n3cncn3)c([N+](=O)[O-])c2)cc1F,7.64
11,CCCCOc1ccc(-c2nc(/C=N/c3nccs3)c(O)o2)cc1,15.5
12,COc1ccc(S(N)(=O)=O)cc1C(=O)NCCCN1CCN(c2ccccc2OC)CC1.CS(=O)(=O)O,4.07
13,Cc1ccccc1OC(C)C(=O)Nc1ccc2c(c1)OCO2 (centres unmarked),-1.56
14,Cc1cccc(C2Nc3ccccc3C(=O)N2NC(=O)c2ccc([N+](=O)[O-])cc2)n1 (centres unmarked),-3.86
15,O=C(CCNS(=O)(=O)c1ccccc1)OCC(=O)c1ccc(Cl)cc1,5.9
16,NC(=O)N/N=C/c1c(F)c(F)c(F)c(F)c1F,13.2
17,CCN1CCN(S(=O)(=O)c2ccc(Cl)c(C(=O)N(C)Cc3ccc(Cl)cc3Cl)c2)CC1,6.11
18,Cc1sc2ncnc(NCC(C)(C)N3CCOCC3)c2c1C,-63.6
19,Cc1ccn(CC(=O)N2CCCC(C(=O)c3cccc4ccccc34)C2)n1 (centres unmarked),9.74
20,Cc1cc(C)cc(OCC(=O)OCC(=O)NC2CCCC2)c1,5.76
